Publication PMC9911399, “Two distinct binding modes provide the RNA-binding protein RbFox with extraordinary sequence specificity”
Positions count from the first letter of the chain named. The list shows a part of the results.

T1: RBFOX1 RRM RbFoxmut (Fox-RRM*) (Homo sapiens, UniProt Q9NWB1 109-208, R118D;E147R;N151S;E152T)
T1 sequence: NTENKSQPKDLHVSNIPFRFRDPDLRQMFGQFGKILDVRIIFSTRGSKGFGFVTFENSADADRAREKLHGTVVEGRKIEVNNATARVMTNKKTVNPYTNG

B1: UAACCUU (DNA:RNA)
RNA: GGGAGACCGGAAUUCAGAUUGUCCUAACCUUUUAAAUCCCGUCGUAGCCACCA
DNA 1: CAATCTGAATTCCGGTCTCCC
DNA 2: TGGTGGCTACGACGGGATT
B2: GCGCUUG (DNA:RNA)
RNA: B1 RNA with U25G, A26C, A27G, C29U, U31G
DNA 1: CAATCTGAATTCCGGTCTCCC
DNA 2: TGGTGGCTACGACGGGATT
B3: ACACACG (DNA:RNA)
RNA: B1 RNA with U25A, A26C, C29A, U30C, U31G
DNA 1: CAATCTGAATTCCGGTCTCCC
DNA 2: TGGTGGCTACGACGGGATT
B4: UUAGAGA (DNA:RNA)
RNA: B1 RNA with A26U, C28G, C29A, U30G, U31A
DNA 1: CAATCTGAATTCCGGTCTCCC
DNA 2: TGGTGGCTACGACGGGATT
B5: CCCGGUA (DNA:RNA)
RNA: B1 RNA with U25C, A26C, A27C, C28G, C29G, U31A
DNA 1: CAATCTGAATTCCGGTCTCCC
DNA 2: TGGTGGCTACGACGGGATT
B6: GGGUGAU (DNA:RNA)
RNA: B1 RNA with U25G, A26G, A27G, C28U, C29G, U30A
DNA 1: CAATCTGAATTCCGGTCTCCC
DNA 2: TGGTGGCTACGACGGGATT
B7: UUGCGCG (DNA:RNA)
RNA: B1 RNA with A26U, A27G, C29G, U30C, U31G
DNA 1: CAATCTGAATTCCGGTCTCCC
DNA 2: TGGTGGCTACGACGGGATT
B8: UACCCGC (DNA:RNA)
RNA: B1 RNA with A27C, U30G, U31C
DNA 1: CAATCTGAATTCCGGTCTCCC
DNA 2: TGGTGGCTACGACGGGATT
B9: UUGCGCA (DNA:RNA)
RNA: B1 RNA with A26U, A27G, C29G, U30C, U31A
DNA 1: CAATCTGAATTCCGGTCTCCC
DNA 2: TGGTGGCTACGACGGGATT
B10: GGAAAUG (DNA:RNA)
RNA: B1 RNA with U25G, A26G, C28A, C29A, U31G
DNA 1: CAATCTGAATTCCGGTCTCCC
DNA 2: TGGTGGCTACGACGGGATT
B11: ACGCUUA (DNA:RNA)
RNA: B1 RNA with U25A, A26C, A27G, C29U, U31A
DNA 1: CAATCTGAATTCCGGTCTCCC
DNA 2: TGGTGGCTACGACGGGATT
B12: CUACAAU (DNA:RNA)
RNA: B1 RNA with U25C, A26U, C29A, U30A
DNA 1: CAATCTGAATTCCGGTCTCCC
DNA 2: TGGTGGCTACGACGGGATT
B13: CUUUUGU (DNA:RNA)
RNA: B1 RNA with U25C, A26U, A27U, C28U, C29U, U30G
DNA 1: CAATCTGAATTCCGGTCTCCC
DNA 2: TGGTGGCTACGACGGGATT
B14: UUUGUGA (DNA:RNA)
RNA: B1 RNA with A26U, A27U, C28G, C29U, U30G, U31A
DNA 1: CAATCTGAATTCCGGTCTCCC
DNA 2: TGGTGGCTACGACGGGATT
B15: UGCUUUG (DNA:RNA)
RNA: B1 RNA with A26G, A27C, C28U, C29U, U31G
DNA 1: CAATCTGAATTCCGGTCTCCC
DNA 2: TGGTGGCTACGACGGGATT
B16: UCCUCCA (DNA:RNA)
RNA: B1 RNA with A26C, A27C, C28U, U30C, U31A
DNA 1: CAATCTGAATTCCGGTCTCCC
DNA 2: TGGTGGCTACGACGGGATT
B17: GGGGUCA (DNA:RNA)
RNA: GGGAGACCGGAAUUCAGAUUGUCCGGGGUCAUUAAAUCCCGUCGUAGCCACCA
DNA 1: CAATCTGAATTCCGGTCTCCC
DNA 2: TGGTGGCTACGACGGGATT
B18: GUGCACU (DNA:RNA)
RNA: B17 RNA with G26U, G28C, U29A, A31U
DNA 1: CAATCTGAATTCCGGTCTCCC
DNA 2: TGGTGGCTACGACGGGATT
B19: AAUAGGA (DNA:RNA)
RNA: B17 RNA with G25A, G26A, G27U, G28A, U29G, C30G
DNA 1: CAATCTGAATTCCGGTCTCCC
DNA 2: TGGTGGCTACGACGGGATT
B20: CUUCUCG (DNA:RNA)
RNA: B17 RNA with G25C, G26U, G27U, G28C, A31G
DNA 1: CAATCTGAATTCCGGTCTCCC
DNA 2: TGGTGGCTACGACGGGATT
B21: GUGCCGU (DNA:RNA)
RNA: B1 RNA with U25G, A26U, A27G, U30G
DNA 1: CAATCTGAATTCCGGTCTCCC
DNA 2: TGGTGGCTACGACGGGATT
B22: UCUACCU (DNA:RNA)
RNA: B1 RNA with A26C, A27U, C28A, U30C
DNA 1: CAATCTGAATTCCGGTCTCCC
DNA 2: TGGTGGCTACGACGGGATT
B23: CGCGAGA (DNA:RNA)
RNA: B17 RNA with G25C, G27C, U29A, C30G
DNA 1: CAATCTGAATTCCGGTCTCCC
DNA 2: TGGTGGCTACGACGGGATT
B24: AUAACAU (DNA:RNA)
RNA: B1 RNA with U25A, A26U, C28A, U30A
DNA 1: CAATCTGAATTCCGGTCTCCC
DNA 2: TGGTGGCTACGACGGGATT
B25: CGUGGAU (DNA:RNA)
RNA: B17 RNA with G25C, G27U, U29G, C30A, A31U
DNA 1: CAATCTGAATTCCGGTCTCCC
DNA 2: TGGTGGCTACGACGGGATT
B26: CAACGGG (DNA:RNA)
RNA: B1 RNA with U25C, C29G, U30G, U31G
DNA 1: CAATCTGAATTCCGGTCTCCC
DNA 2: TGGTGGCTACGACGGGATT
B27: UACGUGU (DNA:RNA)
RNA: B1 RNA with A27C, C28G, C29U, U30G
DNA 1: CAATCTGAATTCCGGTCTCCC
DNA 2: TGGTGGCTACGACGGGATT
B28: UAGAACU (DNA:RNA)
RNA: B1 RNA with A27G, C28A, C29A, U30C
DNA 1: CAATCTGAATTCCGGTCTCCC
DNA 2: TGGTGGCTACGACGGGATT
B29: UCGUGCU (DNA:RNA)
RNA: B17 RNA with G25U, G26C, G28U, U29G, A31U
DNA 1: CAATCTGAATTCCGGTCTCCC
DNA 2: TGGTGGCTACGACGGGATT
B30: GGAAGAG (DNA:RNA)
RNA: B17 RNA with G27A, G28A, U29G, C30A, A31G
DNA 1: CAATCTGAATTCCGGTCTCCC
DNA 2: TGGTGGCTACGACGGGATT
B31: UGCCUAA (DNA:RNA)
RNA: B17 RNA with G25U, G27C, G28C, C30A
DNA 1: CAATCTGAATTCCGGTCTCCC
DNA 2: TGGTGGCTACGACGGGATT

Target: T1, RBFOX1 RRM RbFoxmut (Fox-RRM*)
Test: EMSA; HiTS-Eq, 1 nM pool, 10 min; buffer printed only for the single-RNA assays: 10 mM Tris pH 7.5, 150 mM NaCl, 3.4 mM EDTA, 0.001% NP-40, 30 C
Conditions: tags: His6 N-terminal (pET28a); label: 5' 32P
Outline: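 A pool of RNA with 7 randomized nucleotides, 5′-radiolabelled and with DNA-annealed flanks, was equilibrated at 1 nM for 10 min in 50 µL with purified RbFox RRM, wild type or mutant, across increasing protein concentrations. Free RNA was separated by 8% native PAGE, excised, reverse-transcribed, barcoded by PCR and sequenced. Relative association constants were obtained from read-count changes of each RNA species versus the control reaction and normalised to the cognate motif.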

Row | Binder | binding signal
1 | B1 | 0.0688 KA relative to UGCAUGU
2 | B2 | 0.228 KA relative to UGCAUGU
3 | B3 | 0.108 KA relative to UGCAUGU
4 | B4 | 0.0862 KA relative to UGCAUGU
5 | B5 | 0.111 KA relative to UGCAUGU
6 | B6 | 0.116 KA relative to UGCAUGU
7 | B7 | 0.206 KA relative to UGCAUGU
8 | B8 | 0.0813 KA relative to UGCAUGU
9 | B9 | 0.138 KA relative to UGCAUGU
10 | B10 | 0.177 KA relative to UGCAUGU
11 | B11 | 0.118 KA relative to UGCAUGU
12 | B12 | 0.0289 KA relative to UGCAUGU
13 | B13 | 0.145 KA relative to UGCAUGU
14 | B14 | 0.0842 KA relative to UGCAUGU
15 | B15 | 0.179 KA relative to UGCAUGU
16 | B16 | 0.116 KA relative to UGCAUGU

Row | Binder | binding signal
17 | B17 | 0.172 KA relative to UGCAUGU
18 | B18 | 0.0816 KA relative to UGCAUGU
19 | B19 | 0.0533 KA relative to UGCAUGU
20 | B20 | 0.116 KA relative to UGCAUGU
21 | B21 | 0.118 KA relative to UGCAUGU
22 | B22 | 0.077 KA relative to UGCAUGU
23 | B23 | 0.0977 KA relative to UGCAUGU
24 | B24 | 0.0722 KA relative to UGCAUGU
25 | B25 | 0.114 KA relative to UGCAUGU
26 | B26 | 0.0494 KA relative to UGCAUGU
27 | B27 | 0.126 KA relative to UGCAUGU
28 | B28 | 0.0733 KA relative to UGCAUGU
29 | B29 | 0.0892 KA relative to UGCAUGU
30 | B30 | 0.0746 KA relative to UGCAUGU
31 | B31 | 0.0802 KA relative to UGCAUGU
